# Source: PubChem BioAssay AID485294 (National Center for Advancing Translational Sciences (NCATS), 2010)
# Among all 370,000 compounds or so, about 150 (0.041%) were called active. The inconclusive results got no clear call from the source; some entries with a clear call stand among them for comparison. Calls come from the whole dose curve; as a rule, active = well fitted inhibition curve with a large enough effect; inconclusive = small, poorly fitted or top-dose-only effect; inactive = flat fitted curve, though single readings scatter. No potency is given beside an inconclusive call; the fits are too rough.
# Biological target: Beta-lactamase (Escherichia coli (strain K12)) (UniProt P00811)
# Chain of UniProt P00811 (P00811 whole entry, looked up): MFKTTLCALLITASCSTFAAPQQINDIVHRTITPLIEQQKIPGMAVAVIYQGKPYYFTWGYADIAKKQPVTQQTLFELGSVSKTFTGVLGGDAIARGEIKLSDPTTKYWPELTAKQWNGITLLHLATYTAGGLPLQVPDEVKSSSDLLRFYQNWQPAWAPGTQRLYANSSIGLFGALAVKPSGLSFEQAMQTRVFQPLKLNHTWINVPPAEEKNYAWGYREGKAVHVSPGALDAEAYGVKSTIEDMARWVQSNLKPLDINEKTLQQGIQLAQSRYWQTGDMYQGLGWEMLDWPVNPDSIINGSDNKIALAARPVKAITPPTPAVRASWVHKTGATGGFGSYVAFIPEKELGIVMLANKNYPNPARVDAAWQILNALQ
# Experiment: qHTS Inhibitors of AmpC Beta-Lactamase (assay with detergent); note: nearly all actives have a fitted effect of over 25% in size
# Conditions: AmpC hydrolysis of nitrocefin, absorbance 480 nm, 0.01% Triton; series mostly up to 114 µM
# Summary of the method: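 20 mM phosphate pH 7.0 + 0.01% (detergent screen) or 0.0001% Triton X-100; 5.3 nM AmpC reagent; cpd preinc 15 min RT; nitrocefin (800 uM stock) to start; A480 q20 s × 4 min; Activity was normalised to no-enzyme and no-compound control wells.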
# Potency is the fitted concentration of half-maximal effect; tags give direction and shape of the fitted curve.
row,SMILES,Potency
1,CCCCNC(=O)C1CCCN(S(=O)(=O)c2ccc(-n3cnnn3)cc2)C1 (stereo unspecified),"inconclusive [inhibitor, full curve, poor fit]"
2,O=C(OCC(O)COC(=O)c1cccnc1)c1cccnc1,inactive
3,COc1ccc(N(C(C)=O)S(=O)(=O)c2cccc3cccnc23)cc1,"inconclusive [inhibitor, full curve, poor fit]"
4,C#CCOc1c(Cl)cc(/C=N/NC(N)=S)cc1OCC,"inconclusive [inhibitor, single point]"
5,O=C(NCCC1=CCCCC1)c1cc(COc2c(F)cccc2F)on1,inactive
6,C[C@H](CCC(=O)NCC(=O)O)[C@H]1CC[C@H]2C3[C@H](O)C[C@@H]4C[C@H](O)CC[C@]4(C)[C@H]3C[C@H](O)[C@]12C (stereo partly specified),"inconclusive [inhibitor, full curve, poor fit]"
7,COc1ccc(CNC(=O)c2ccccc2SCC(=O)NCc2ccco2)cc1,"inconclusive [inhibitor, full curve, poor fit]"
8,CC(C)(C)NC(=O)NC(=O)Cn1ccsc1=N,inactive
9,Cc1ccc2[nH]c(=O)c(C3=NN(C(=O)CCC(=O)O)C(c4cccs4)C3)c(-c3ccccc3)c2c1 (stereo unspecified),"inconclusive [inhibitor, full curve, poor fit]"
10,Fc1ccc(F)c(NC(=S)NCCc2ccccc2)c1,"inconclusive [inhibitor, single point]"
11,COc1ccc(C(C(=O)OC(C)CN(C)C)c2ccccc2)cc1 (stereo unspecified),inactive
12,COc1ccc(C(c2nnnn2C(C)(C)C)N2CCN(c3nc4ccccc4s3)CC2)cc1 (stereo unspecified),inactive
13,Cc1cc(C(=O)CS(=O)(=O)c2ccccc2)cc(C)c1OC(=O)N(C)C,"inconclusive [inhibitor, full curve, poor fit]"
14,CC(C)COC(=O)c1ccccc1N1C(=O)C2C3CCC(C3)C2C1=O (stereo unspecified),"inconclusive [inhibitor, full curve, poor fit]"
15,COc1ccc(CCNC(=O)c2cnn3c(C(F)F)cc(C)nc23)cc1OC,"inconclusive [inhibitor, full curve, poor fit]"
16,O=C(Oc1ccccc1)N1CCOCC1,"inconclusive [inhibitor, partial curve]"
17,Cc1nc(SCC(=O)NCc2ccco2)c2c3c(sc2n1)CCCC3,inactive
18,CCCCCn1c(SCCOCC)nc2c1c(=O)[nH]c(=O)n2C,"inconclusive [inhibitor, full curve, poor fit]"
19,CCN1C(=NCCCCO)N[C@@H](c2cccc(C(F)(F)F)c2)C(C(=O)OC)=C1C,"inconclusive [inhibitor, full curve, poor fit]"
20,O=C(O)c1c(Cl)nc2ccccn12,"inconclusive [inhibitor, partial curve, poor fit]"
21,O=C(CN1C(=O)CC(c2ccccc2)=Nc2ccccc21)NC1CCCCC1,"inconclusive [inhibitor, full curve, poor fit]"

row,SMILES,Potency
1,Cc1ccc(S(=O)(=O)N(C)C)cc1NC(=O)CN1C(=O)NC2(CCCc3ccccc32)C1=O (stereo unspecified),"inconclusive [inhibitor, full curve]"
2,Cc1ccc(OCCCNC2CCCC2)cc1,"inconclusive [inhibitor, full curve]"
3,O=S(=O)(c1cccc(S(=O)(=O)N2CCOCC2)c1)N1CCCCC1,"inconclusive [inhibitor, single point]"
4,CC(C)OC(=O)CSc1nnc2c(n1)[nH]c1ccc(F)cc12,"inconclusive [inhibitor, full curve, poor fit]"
5,CC(C)CC(NC(=O)c1ccccc1)C(=O)N/N=C/c1ccco1 (stereo unspecified),"inconclusive [inhibitor, partial curve]"
6,O=C(CSc1nc(-c2ccccc2)cs1)NC(=O)NCc1ccco1,"inconclusive [inhibitor, single point]"
7,COc1cccc(CN(Cc2ccccc2F)S(=O)(=O)c2ccc(S(=O)(=O)NCc3ccccc3)cc2)c1,"inconclusive [inhibitor, full curve, poor fit]"
8,COc1ccccc1C1CN(c2ccc(F)cc2F)N=C1c1cccs1 (stereo unspecified),"inconclusive [inhibitor, partial curve]"
9,Cn1c(NC(=O)c2ccc(Cl)s2)cc(=O)n(C)c1=O,"inconclusive [inhibitor, single point]"
10,Cc1ccc(Nc2nnc(-c3ccc(N4CCOCC4)c([N+](=O)[O-])c3)c3ccccc23)cc1,"inconclusive [inhibitor, full curve, poor fit]"
11,CCOC(=O)C1CCN(c2ncnc3c2nnn3C)CC1,inactive
12,CC(=O)c1cccc(N(CC(=O)Nc2ccccc2C(=O)N2CCCC2)S(C)(=O)=O)c1,"inconclusive [inhibitor, full curve, poor fit]"
13,COc1ccc(CN2C(=O)CN=C2Nc2cccc(C)c2C)cc1,"inconclusive [inhibitor, single point]"
14,CCn1nc(C)c(/C=N/NC(=O)c2ccc3c(c2)c(C)c(C)n3Cc2ccccc2)c1C,"inconclusive [inhibitor, single point]"
15,CCN(CC)S(=O)(=O)c1cc(C(=O)NC2CCCCC2)ccc1C,inactive
16,CC(=O)c1ccc(N2CCN(C(C)C(=O)NC3CCCc4ccccc43)CC2)cc1 (stereo unspecified),"inconclusive [inhibitor, partial curve]"
17,NC(=O)CC(NC(=O)Cc1ccc(Cl)cc1)c1ccc(N2CCN(c3ccccn3)CC2)c([N+](=O)[O-])c1 (stereo unspecified),"inconclusive [inhibitor, partial curve, poor fit]"
18,Cc1ccc(/C=N/Nc2ncnc3nc[nH]c23)cc1,inactive
19,COc1ccccc1OCCC(=O)OCC(=O)NC(=O)NC(C)(C)C,"inconclusive [inhibitor, single point]"
20,CCOc1ccccc1NC(=O)NC(C)c1ccc2c(c1)OCO2 (stereo unspecified),"inconclusive [inhibitor, single point]"
